Data: PubChem BioAssay AID686979 (National Center for Advancing Translational Sciences (NCATS), 2013)
Among all 420,000 compounds or so, about 50,000 (12%) were called active. Inconclusive results, whose numbers are uncertain, are shown with a selection of clear calls. The call rests on the fitted dose curve; in most records, active means well fitted inhibition curve with a large enough effect; inconclusive means small, poorly fitted or top-dose-only effect; inactive means flat fitted curve, though single readings scatter. No potency is given beside an inconclusive call; the fits are too rough.

test: qHTS for Inhibitors of human tyrosyl-DNA phosphodiesterase 1 (TDP1): qHTS in cells in presence of CPT; conditions: chicken DT40 Tdp1-/-;hTDP1 cells + 20 nM CPT, ATP luminescence, 48 h; activity change, negative = growth inhibition: at 46.2 µM (top of the series) unless noted; further: nearly all actives have a fitted effect of over 55% in size
How it was run: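 Chicken DT40 Tdp1-/- cells complemented with human TDP1, 400 cells/well, exposed to compounds plus 20 nM camptothecin for at least 48 h at 37 C; viability read as ATP content by CellTiter-Glo luminescence.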
On the % scale 0 is the no-effect control and ±100 the full control effect; potency means the concentration at half of the fitted maximal effect; tags describe the fitted curve by direction and shape.

Row | Compound | Potency | activity change, negative = growth inhibition
1 | CC(C)(C)C(=O)CSc1nc2ccsc2c(=O)n1Cc1ccccc1F | inconclusive [inhibitor, single point] | –
2 | Cc1ccc(C)c(-c2nc(Cn3c(=O)cc(-c4ccccc4)c4c(C)nn(C)c43)c(C)o2)c1 | inconclusive [inhibitor, partial curve] | –
3 | Cc1ccc(Cn2c(C(C)Nc3nc(-c4ccc(F)cc4)cs3)nc3cc(C(=O)NCCCO)ccc32)cc1 (configuration not stated) | inconclusive [inhibitor, single point] | –
4 | Cc1c(C)c(C)c(C(=O)C2CCN(c3ccc([N+](=O)[O-])cn3)CC2)c(C)c1C | inconclusive [inhibitor, single point] | –
5 | COc1ccc(CCNS(=O)(=O)c2ccc(N3CCCC3=O)cc2)cc1 | active: 20.6 µM | –
6 | CC(=O)c1c(C)[nH]c(C(=O)OCC(=O)Nc2cc(S(=O)(=O)N3CCCC3)ccc2Cl)c1C | inconclusive [inhibitor, single point] | –
7 | Cc1ccccc1NC(=S)N1CCCC1 | – | inactive: 1.61%
8 | CCn1nc([N+](=O)[O-])c(C(C#N)c2nc3cc(C(F)(F)F)ccc3s2)c(Cl)c1=O (configuration not stated) | active: 14.6 µM | –
9 | COc1cccc(-c2nc(SCc3cc(=O)c4ccc(C)c(C)c4[nH]3)n[nH]2)c1 | inconclusive [inhibitor, single point] | –
10 | Cc1ccc(-n2nc(C)c3c(C)c(CCC(=O)O)c(C)nc32)cc1C | – | inactive: -9.51%
11 | Cc1c(C(=O)c2no[n+]([O-])c2C(=O)c2cnn(C)c2C)cnn1C | active: 2.59 µM | –
12 | CC1(C(=O)Nc2ccc3[nH]ncc3c2)CCN1C(=O)CC(c1ccccc1)c1ccccc1 (configuration not stated) | inconclusive [inhibitor, single point] | –
13 | COc1ccc(OCCN2CCN(S(=O)(=O)c3ccccc3C(F)(F)F)CC2)cc1 | inconclusive [inhibitor, single point] | –
14 | CSc1ccc(CNCCCN(C)C)cc1 | inconclusive [inhibitor, single point] | –
15 | CCOC(=O)C1=CCC(c2ccccc2)N(S(=O)(=O)c2ccccc2C)C1 (configuration not stated) | inconclusive [inhibitor, single point] | –
16 | CCOc1cccc(C(=O)Nc2ccc(S(=O)(=O)N(Cc3ccccc3)c3ccccc3)cc2)c1 | inconclusive [inhibitor, partial curve] | –
17 | CON(C)C(=O)/C=C/c1ccc([B-](F)(F)F)cc1 | inconclusive [inhibitor, single point] | –
18 | Cc1ccc(Cc2c(C)nc3nc(SCC(=O)NC(C)c4ccccc4)nn3c2C)cc1 (configuration not stated) | inconclusive [inhibitor, single point] | –
19 | CCCN(C(=O)c1nn(-c2ccc(OC)cc2)c(=O)c2c1c1ccccc1n2C)c1ccc(CC)cc1 | – | inactive: -17.2%
20 | COc1ccc(C(NC(C)=O)c2c(O)ccc3ccccc23)cc1OC (configuration not stated) | – | inactive: 1.21%
21 | Cc1sc(NC(=O)CN2C(=O)NC3(CCCC3)C2=O)nc1-c1ccc(F)cc1 | inconclusive [inhibitor, partial curve] | –
22 | O=C(Nc1cccc(S(=O)(=O)NC2=NCCCCC2)c1)C1COc2ccccc2O1 (configuration not stated) | inconclusive [inhibitor, single point] | –
23 | CC[C@]12c3[nH]c4ccc(OC)cc4c3CCN1C(=O)C(CC(=O)NCCC1=CCCCC1)C[C@@H]2C(=O)N1CCN(C(=O)C2CC2)CC1 (some centres not stated) | inconclusive [inhibitor, partial curve] | –

Row | Compound | Potency | activity change, negative = growth inhibition
24 | Cc1ccc(Cc2nc3ccccc3nc2SCC(=O)NCCC(C)C)cc1 | inconclusive [inhibitor, single point] | –
25 | Cc1onc(-c2ccccc2)c1C(=O)OCc1nnc(-c2ccccc2)o1 | inconclusive [inhibitor, single point] | –
26 | CC(=O)NC(CC(=O)NNC(=O)c1cccs1)c1ccccc1 (configuration not stated) | – | inactive: -16%
27 | COc1cc(OC)cc(-c2c(-c3ccc(F)cc3)c3cc(-c4cnc(OC)nc4)ccc3n2C)c1 | active: 16.4 µM | –
28 | O=C(COc1cccc2ccccc12)N/N=C/c1ccc(Sc2nc3ccccc3s2)o1 | inconclusive [inhibitor, single point] | –
29 | COc1ccc(NC(=O)c2csc3c2CCCCC3)cc1 | inconclusive [inhibitor, single point] | –
30 | CCS(=O)(=O)N1CCCC(C(=O)NCC2CCCO2)C1 (configuration not stated) | – | inactive: -6.16%
31 | CN(CC1CCCO1)S(=O)(=O)c1ccc(C(=O)Nc2ccc(S(N)(=O)=O)cc2)cc1 (configuration not stated) | inconclusive [inhibitor, single point] | –
32 | Cc1ccc(-n2sc3cc(F)ccc3c2=O)c(C)c1 | active: 2.91 µM | –
33 | Cc1cccc(-n2c(O)c(C=Nc3ccccc3O)c3ccccc3c2=O)n1 | – | inactive: -24.7%
34 | COc1ccc(CCC(=O)O)c(C(CC(=O)O)C(=O)O)c1OS(=O)(=O)c1ccc(C)cc1 (configuration not stated) | – | inactive: -2.6%
35 | CN(Cc1cnn(-c2ccc(F)cc2)c1)C(=O)[C@H]1O[C@@H](n2ccc(N)nc2=O)[C@H](O)[C@@H]1O | – | inactive: -14.5%
36 | C[C@@H](NC(=O)c1nc[nH]c1C(=O)NCc1ccc(CNC(=O)OC(C)(C)C)cc1)c1ccccc1 | inconclusive [inhibitor, single point] | –
37 | CC1=NN(c2nc(-c3ccc(C)cc3)cs2)C(=O)C1N=Nc1cccc(O)c1 (configuration not stated) | inconclusive [inhibitor, single point] | –
38 | COc1cc(C(=O)NCCC(=O)NC2CCCc3ccccc32)cc(OC)c1OC (configuration not stated) | – | inactive: 3.26%
39 | Cc1cc(C(=O)NCC(c2ccco2)N(C)C)ccc1[N+](=O)[O-] (configuration not stated) | – | inactive: 11.7%
40 | Cc1cccc(/C=C2/Sc3ccc(C(=O)N4CCOCC4)cc3NC2=O)c1 | inconclusive [inhibitor, single point] | –
41 | COC(=O)/C(=C/Nc1ccc(O)cc1)[N+](=O)[O-] | inconclusive [inhibitor, single point] | –
42 | COc1ccc(C(=O)Nc2ccc(O)c3ccccc23)cc1 | inconclusive [inhibitor, single point] | –
43 | CSCC[C@H](NC(=O)[C@H]1N2C(=O)c3ccccc3C2SC1(C)C)C(=O)NCc1ccncc1 (some centres not stated) | – | inactive: -14.5%
44 | COCCN(CC(=O)Nc1ccccc1C(F)(F)F)C(=O)/C=C/c1cc(Cl)c2c(c1)OCCO2 | – | inconclusive: -33.2% [inhibitor]
45 | Cc1cc(C(=O)COC(=O)c2ccc(O)cc2)c(C)n1-c1ccccc1F | inconclusive [inhibitor, single point] | –
46 | Cc1ccc(N(CCCCN2C(=O)c3ccccc3C2=O)C(=O)c2ccc(Cl)s2)cc1 | inconclusive [inhibitor, single point] | –

Row | Compound | Potency | activity change, negative = growth inhibition
47 | NC(=O)c1ccccc1OCC(=O)Nc1ccc2c(c1)CCC2 | inconclusive [inhibitor, single point] | –
48 | CCOc1ccc(S(N)(=O)=O)cc1-c1nc2c(C(C)(C)C)nn(C)c2c(=O)[nH]1 | inconclusive [inhibitor, single point] | –
49 | COc1ccc(C(=O)NCC(c2cccnc2)N2CCc3ccccc3C2)cc1OC (configuration not stated) | active: 16.4 µM | –
50 | Cc1cccc(-c2noc(CN(C(=O)C(c3ccccc3)c3ccccc3)C(C)C)n2)c1 | inconclusive [inhibitor, single point] | –
51 | BrC(/C=N/N1CCN(Cc2ccccc2)CC1)=C/c1ccccc1 | active: 13 µM | –
52 | Cn1c(=O)c2c(-c3ccccc3)n3c4ccccc4nc(-c4ccccc4)c3c2n(C)c1=O | inconclusive [inhibitor, single point] | –
53 | Nc1ccc(N(c2ccccc2)c2ccc(N)cc2)cc1 | active: 16.4 µM | –
54 | COc1cccc(NC(=O)Nc2ccc(C(C)(C)C)cc2)c1 | inconclusive [inhibitor, single point] | –
55 | O=C1C(=O)N(CCN2CCOCC2)C(c2ccccc2)/C1=C(\O)c1ccc2c(c1)OCCO2 (configuration not stated) | – | inactive: 2.56%
56 | CCn1c(=O)c2cc(C(=O)Nc3cc(F)ccc3F)sc2c2ccccc21 | inconclusive [inhibitor, full curve, poor fit] | –
57 | CC(=O)OCC1=C(C(=O)O)N2C(=O)C(NC(=O)c3ccc(COc4c(C)cccc4Cl)o3)C2SC1 (configuration not stated) | – | inactive: -3.1%
58 | COc1nc(OC)nc(N2CCCCCC2)n1 | inconclusive [inhibitor, single point] | –
59 | COc1ccc(CNC(=O)C(c2ccco2)N(C(=O)c2csnn2)c2cccc(C)c2C)cc1 (configuration not stated) | inconclusive [inhibitor, single point] | –
60 | Cn1cc(CN2CCCC(C(=O)c3cc(F)ccc3F)C2)c2ccccc21 (configuration not stated) | inconclusive [inhibitor, single point] | –
61 | COc1cc(NC(=O)CN(c2cc(C)cc(C)c2)S(=O)(=O)c2c(C)noc2C)cc(OC)c1 | active: 18.4 µM | –
62 | CC(c1ccncn1)N(C)Cc1nc(-c2ccc(C(F)(F)F)cc2)no1 (configuration not stated) | active: 18.4 µM | –
63 | COc1ccc2[nH]cc(CCNc3ccnc(-c4ccc(C(=O)N(C)C)cc4)n3)c2c1 | active: 11.6 µM | –
64 | Cn1c(=O)c(=O)n(C)c2cc(S(=O)(=O)Nc3ccc4c(c3)OCCO4)ccc21 | inconclusive [inhibitor, single point] | –
65 | O=C(Cc1n[nH]c(=O)c2ccccc12)N1CCN(S(=O)(=O)c2ccc(F)c(Cl)c2)CC1 | – | inactive: -8.29%
66 | Cc1cc2oc(=O)cc(CN(C)Cc3ccccc3Cl)c2cc1C | inconclusive [inhibitor, single point] | –
67 | O=C(NCCCc1ccccc1)C1CCN(c2nnc(-n3cccc3)s2)CC1 | inconclusive [inhibitor, single point] | –
